# Laboratory results from the supplement of paper PMC3334620.
# Whole data set: some 33,000 sequences, median “E-score (-0.5 to 0.5)” near -0.032, cut for the highest 2% near 0.36. The list shows a part of the results.
# Molecular target: T1, Sko1 (UniProt Q02100)
# T1 sequence: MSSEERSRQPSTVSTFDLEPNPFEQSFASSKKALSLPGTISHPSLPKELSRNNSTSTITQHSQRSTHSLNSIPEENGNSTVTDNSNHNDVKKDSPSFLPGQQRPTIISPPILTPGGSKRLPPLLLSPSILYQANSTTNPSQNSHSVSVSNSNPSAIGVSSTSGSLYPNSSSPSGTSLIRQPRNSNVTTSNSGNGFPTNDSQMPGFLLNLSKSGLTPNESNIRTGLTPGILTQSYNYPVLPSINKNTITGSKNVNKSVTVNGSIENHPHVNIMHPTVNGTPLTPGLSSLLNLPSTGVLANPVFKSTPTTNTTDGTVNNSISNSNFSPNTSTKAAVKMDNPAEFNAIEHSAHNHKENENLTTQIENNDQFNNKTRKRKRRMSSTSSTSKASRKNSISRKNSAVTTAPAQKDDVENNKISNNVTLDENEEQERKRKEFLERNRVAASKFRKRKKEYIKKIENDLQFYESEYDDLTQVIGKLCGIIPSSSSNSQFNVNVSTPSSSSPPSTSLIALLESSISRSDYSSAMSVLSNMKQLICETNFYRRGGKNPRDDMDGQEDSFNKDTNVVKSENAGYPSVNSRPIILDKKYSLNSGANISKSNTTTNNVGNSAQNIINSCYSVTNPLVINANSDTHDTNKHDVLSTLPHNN
# Assay: PBM E-score (8-mer binding enrichment) (E-score (-0.5 to 0.5)); higher = stronger / more preferred TF binding; most listed sequences are background and not binding sites
# Conditions: protein concentration: 200 nM; construct: GST-full length
# Experimental: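 Universal 'all 10-mer' protein binding microarrays (Agilent AMADID 015681) probed with GST-tagged S. cerevisiae TFs (full-length or DBD) made by in vitro transcription/translation (PURExpress), about 100-200 nM. Bound TF was detected with fluorescent anti-GST. Each ungapped 8-mer (which stands for itself and its reverse complement) is scored by the PBM enrichment score (E-score), a modified Wilcoxon-Mann-Whitney statistic from -0.5 to +0.5, computed with the Universal PBM Analysis Suite. Scale: above 0.35 generally sequence-specific binding.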
row,Sequence,PBM E-score
1,TAGTAGGA,-0.11
2,TCCAACAA,0.0795
3,ACTAACAA,-0.0482
4,CTCCATTA,-0.0268
5,AAGGTGAT,0.0841
6,CGTGCCAG,-0.101
7,AGGCAGCA,-0.0239
8,ACCACAAA,0.0563
9,CCTTAGAC,-0.043
10,AATATAAT,0.0933
11,CCGACGAC,0.00622
12,ATCGTCCC,-0.0614
13,AAGCGTCG,-0.0102
14,GTTGCCGA,0.0716
15,CCCTCCAG,-0.445
16,AACCTCGC,-0.147
17,GACCGAGA,-0.156
18,CCTACGCA,0.361
19,CGTCTTCC,0.0924
20,GCCATCAA,-0.0252
21,TAACTTGA,0.0943
22,AGCCTACT,-0.072

row,Sequence,PBM E-score
1,AGTCGCTC,0.0147
2,ACTTCTGG,-0.188
3,ATCTGAAC,-0.00514
4,CAGCATTC,-0.0939
5,CATGACAC,0.258
6,CGATGCTA,-0.104
7,CCCTAAGC,-0.294
8,CGTGCGCA,0.205
9,CAGGGTGA,-0.0395
10,CAAGTCTG,-0.135
11,CCAACATA,0.0619
12,CGTCTACA,0.0862
13,AACGGATG,-0.0941
14,TGGCCGAA,-0.00295
15,GTTCGGTA,-0.0838
16,CTCTCATA,-0.148
17,GTTACATA,0.251
18,ACTTTGTG,-0.00432
19,GCCTGCAC,-0.131
20,ACGCGGGA,-0.129
21,ACCAAATA,0.163
22,CGCCACGA,0.0632

row,Sequence,PBM E-score
1,AGTATGCC,-0.147
2,CATGGATC,-0.269
3,CTAGCTCA,-0.0524
4,AGGAGCAA,-0.156
5,CTGGTCGA,-0.323
6,GATAGTTA,0.128
7,AATTCGAA,0.134
8,ACGGTTTC,-0.187
9,ACGTCTCA,0.314
10,GCACATAC,-0.0289
11,CACGTGAG,0.344
12,CCGCAAAG,-0.149
13,GCCCGATA,-0.0728
14,CGTAGTAA,0.253
15,AATGCGAT,-0.0641
16,ACAGACGA,0.0134
17,AATCCAGG,-0.0918
18,TCCGAGCA,0.021
19,AAGATATG,0.224
20,GAAGGCAA,0.0281
21,CCAAAGGC,-0.154
22,ACCTAGCA,-0.0426

row,Sequence,PBM E-score
1,ACGTCAGC,0.48
2,AGCCAATC,-0.0842
3,GCTATGAC,0.364
4,CCGTCACG,0.152
5,GAGTGGAA,-0.00763
6,AGGGCCAA,-0.284
7,TGATTGCA,0.0949
8,ACCCGCAC,-0.12
9,CAGGGATC,-0.342
10,GACAAATA,0.252
11,AGGACTCG,-0.205
12,CAGACGGG,-0.395
13,AGGATTGC,-0.131
14,AAATCCCG,-0.0636
15,CGCCGCTC,-0.232
16,ATGATATC,0.189
17,CCCCACGC,-0.22
18,ATGAGCCA,0.0374
19,CCCGCCTA,-0.0413
20,GGATTAAC,0.00022
21,AAGCCCGA,-0.0428
22,AATAAGAC,0.101

row,Sequence,PBM E-score
1,CGTCTAGC,0.132
2,ATCGACCA,-0.165
3,CGAGAATC,-0.014
4,ACACAATC,0.216
5,TGTCAGAA,0.0969
6,ACGTTGAA,0.245
7,ATGCAACC,-0.0774
8,GCTACAAA,0.0814
9,CACTATTC,0.0287
10,CATGCACG,0.149
11,AAGGATGA,-0.0165
12,AAGTTCGG,-0.128
13,CTGGACCA,-0.0832
14,AAGAGATG,0.0402
15,GGTGCCAA,-0.105
16,ACACTTGG,-0.196
17,ATCGGCTC,-0.0184
18,ACTTCGAG,-0.0142
19,AGAATTCC,-0.198
20,GACCTTGA,-0.0893
21,AGACGTTA,0.283
22,AGGTAGGG,-0.137
